SMILES strings stand for the structures.

The target of the experiment is N-terminal truncated recombinant human PDE7B enzyme (Homo sapiens (Human), UniProt Q9NP56). Kind of experiment: biochemical.
As to `CC(C)CCNC(=O)c1cc2cc(Cl)c3c(c2o1)C1(CCCCC1)NC(=O)N3` [Example 417, 5′-Chloro-N-(3-methylbutyl)-7′-oxo-7′,8′-dihydro-6′H-spiro[cyclohexane-1,9′-furo[2,3-f]quinazoline]-2′-carboxamide], the IC50 lay within 10 to 100 nM. With `CCN(CCC#N)C(=O)c1cc2cc(Cl)c3c(c2o1)C1(CCCCC1)NC(=O)N3` [Example 418, 5′-Chloro-N-(2-cyanoethyl)-N-ethyl-7′-oxo-7′,8′-dihydro-6′H-spiro[cyclohexane-1,9′-furo[2,3-f]quinazoline]-2′-carboxamide] the figure was 10 to 100 nM. Take `CN(Cc1ccccn1)C(=O)c1cc2cc(Cl)c3c(c2o1)C1(CCCCC1)NC(=O)N3` [Example 419, 5′-Chloro-N-methyl-7′-oxo-N-(pyridin-2-ylmethyl)-7′,8′-dihydro-6′H-spiro[cyclohexane-1,9′-furo[2,3-f]quinazoline]-2′-carboxamide]: the IC50 fell in the range of 10 to 100 nM. Next, `O=C1Nc2c(Cl)cc3cc(C(=O)NCCCN4CCCC4)oc3c2C2(CCCCC2)N1` [Example 420, 5′-Chloro-7′-oxo-N-[3-(pyrrolidin-1-yl)propyl]-7′,8′-dihydro-6′H-spiro[cyclohexane-1,9′-furo[2,3-f]quinazoline]-2′-carboxamide]: 100 to 1000 nM; `CCC(CC)NC(=O)c1cc2cc(Cl)c3c(c2o1)C1(CCCCC1)NC(=O)N3` [Example 421, 5′-Chloro-7′-oxo-N-(pentan-3-yl)-7′,8′-dihydro-6′H-spiro[cyclohexane-1,9′-furo[2,3-f]quinazoline]-2′-carboxamide]: 10 to 100 nM. With `O=C1Nc2c(Cl)cc3cc(C(=O)N4CCCCCC4)oc3c2C2(CCCCC2)N1` [Example 422, 2′-(Azepane-1-carbonyl)-5′-chloro-7′,8′-dihydro-6′H-spiro[cyclohexane-1,9′-furo[2,3-f]quinazoline]-7′-one], the IC50 fell in the range of 10 to 100 nM. On to `O=C1Nc2c(Cl)cc3cc(C(=O)NCCn4ccnc4)oc3c2C2(CCCCC2)N1` [Example 423, 5′-Chloro-N-[2-(1H-imidazol-1-yl)ethyl]-7′-oxo-7′,8′-dihydro-6′H-spiro[cyclohexane-1,9′-furo[2,3-f]quinazoline]-2′-carboxamide], for which the IC50 is 100 to 1000 nM.

Regarding `C[C@@H]1CN(C(=O)c2cc3cc(Cl)c4c(c3o2)C2(CCCCC2)NC(=O)N4)C[C@H](C)O1` [Example 424, 5′-Chloro-2′-[(2R,6S)-2,6-dimethylmorpholine-4-carbonyl]-7′,8′-dihydro-6′H-spiro[cyclohexane-1,9′-furo[2,3-f]quinazoline]-7′-one], the IC50 lay in the range of 10 to 100 nM. Next, `CN(Cc1cccnc1)C(=O)c1cc2cc(Cl)c3c(c2o1)C1(CCCCC1)NC(=O)N3` [Example 425, 5′-Chloro-N-methyl-7′-oxo-N-(pyridin-3-ylmethyl)-7′,8′-dihydro-6′H-spiro[cyclohexane-1,9′-furo[2,3-f]quinazoline]-2′-carboxamide]: 10 to 100 nM; `CN1CCC(N(C)C(=O)c2cc3cc(Cl)c4c(c3o2)C2(CCCCC2)NC(=O)N4)CC1` [Example 426, 5′-Chloro-N-methyl-N-(1-methylpiperidin-4-yl)-7′-oxo-7′,8′-dihydro-6′H-spiro[cyclohexane-1,9′-furo[2,3-f]quinazoline]-2′-carboxamide]: 100 to 1000 nM. Next, `CC(C)C(C)NC(=O)c1cc2cc(Cl)c3c(c2o1)C1(CCCCC1)NC(=O)N3` (stereo not shown) [Example 428, 5′-Chloro-N-(3-methylbutan-2-yl)-7′-oxo-7′,8′-dihydro-6′H-spiro[cyclohexane-1,9′-furo[2,3-f]quinazoline]-2′-carboxamide]: 10 to 100 nM; `CC1CCCN(C(=O)c2cc3cc(Cl)c4c(c3o2)C2(CCCCC2)NC(=O)N4)C1` (stereo not shown) [Example 429, 5′-Chloro-2′-(3-methylpiperidine-1-carbonyl)-7′,8′-dihydro-6′H-spiro[cyclohexane-1,9′-furo[2,3-f]quinazoline]-7′-one]: 10 to 100 nM. With `CN(C)CCN(C)C(=O)c1cc2cc(Cl)c3c(c2o1)C1(CCCCC1)NC(=O)N3` [Example 430, 5′-Chloro-N-[2-(dimethylamino)ethyl]-N-methyl-7′-oxo-7′,8′-dihydro-6′H-spiro[cyclohexane-1,9′-furo[2,3-f]quinazoline]-2′-carboxamide] the figure was 100 to 1000 nM. In the case of `CC1(C)CN(C(=O)c2cc3cc(Cl)c4c(c3o2)C2(CCCCC2)NC(=O)N4)CCO1` [Example 431, 5′-Chloro-2′-(2,2-dimethylmorpholine-4-carbonyl)-7′,8′-dihydro-6′H-spiro[cyclohexane-1,9′-furo[2,3-f]quinazoline]-7′-one], the 50% inhibitory concentration (IC50) lay within 10 to 100 nM. With `O=C1Nc2c(Cl)cc3cc(C(=O)NCc4cccc(O)c4)oc3c2C2(CCCCC2)N1` [Example 432, 5′-Chloro-N-[(3-hydroxyphenyl)methyl]-7′-oxo-7′,8′-dihydro-6′H-spiro[cyclohexane-1,9′-furo[2,3-f]quinazoline]-2′-carboxamide] the figure was 100 to 1000 nM; with `O=C1Nc2c(Cl)cc3cc(C(=O)NCCCN4CCCC4=O)oc3c2C2(CCCCC2)N1` [Example 434, 5′-Chloro-7′-oxo-N-[3-(2-oxopyrrolidin-1-yl)propyl]-7′,8′-dihydro-6′H-spiro[cyclohexane-1,9′-furo[2,3-f]quinazoline]-2′-carboxamide], 10 to 100 nM; with `CC1CCN(C(=O)c2cc3cc(Cl)c4c(c3o2)C2(CCCCC2)NC(=O)N4)CC1` [Example 435, 5′-Chloro-2′-(4-methylpiperidine-1-carbonyl)-7′,8′-dihydro-6′H-spiro[cyclohexane-1,9′-furo[2,3-f]quinazoline]-7′-one], 100 to 1000 nM. With `O=C1Nc2c(Cl)cc3cc(C(=O)NCc4ccsc4)oc3c2C2(CCCCC2)N1` [Example 436, 5′-Chloro-7′-oxo-N-(thiophen-3-ylmethyl)-7′,8′-dihydro-6′H-spiro[cyclohexane-1,9′-furo[2,3-f]quinazoline]-2′-carboxamide] the figure was 10 to 100 nM.

In the case of `O=C1Nc2c(Cl)cc3cc(C(=O)NCc4cccc(F)c4)oc3c2C2(CCCCC2)N1` [Example 437, 5′-Chloro-N-[(3-fluorophenyl)methyl]-7′-oxo-7′,8′-dihydro-6′H-spiro[cyclohexane-1,9′-furo[2,3-f]quinazoline]-2′-carboxamide], the half-maximal inhibitory concentration (IC50) is 100 to 1000 nM. With `O=C1Nc2c(Cl)cc3cc(C(=O)N(CCO)Cc4ccccc4)oc3c2C2(CCCCC2)N1` [Example 438, N-Benzyl-5′-chloro-N-(2-hydroxyethyl)-7′-oxo-7′,8′-dihydro-6′H-spiro[cyclohexane-1,9′-furo[2,3-f]quinazoline]-2′-carboxamide] the figure was 10 to 100 nM. With `Cc1n[nH]c(C)c1CCN(C)C(=O)c1cc2cc(Cl)c3c(c2o1)C1(CCCCC1)NC(=O)N3` [Example 439, 5′-Chloro-N-[2-(3,5-dimethyl-1H-pyrazol-4-yl)ethyl]-N-methyl-7′-oxo-7′,8′-dihydro-6′H-spiro[cyclohexane-1,9′-furo[2,3-f]quinazoline]-2′-carboxamide] the figure was 10 to 100 nM; with `O=C1Nc2c(Cl)cc3cc(C(=O)N4CCN(C5CCCCC5)CC4)oc3c2C2(CCCCC2)N1` [Example 440, 5′-Chloro-2′-(4-cyclohexylpiperazine-1-carbonyl)-7′,8′-dihydro-6′H-spiro[cyclohexane-1,9′-furo[2,3-f]quinazoline]-7′-one], 10 to 100 nM.

As usually defined, the IC50 is the point on the concentration scale where inhibition reaches its midpoint.

These data come from US11685745B2, “Substituted benzoxazole and benzofuran compounds as PDE7 inhibitors” (Dart NeuroScience, LLC, priority 2017, dated 2023).
